Over roughly 33,000 sequences, “E-score (-0.5 to 0.5)” has its median near -0.016; the highest 2% begin near 0.31. The list shows a part of the results.
What follows are sequences tested against Cst6 (UniProt P40535) (assay: PBM E-score (8-mer binding enrichment) (E-score (-0.5 to 0.5)); higher = stronger / more preferred TF binding; most listed sequences are background and not binding sites). Settings: protein concentration: 200 nM; construct: GST-DNA-binding domain.
In short: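 Each ungapped eight-base word and its reverse complement, pooled, received an E-score from the Universal PBM Analysis Suite. Underlying scans, normalised with masliner, recorded fluorescent anti-GST bound to GST-tagged yeast transcription factors. These were applied at about 100-200 nM to universal all-10-mer Agilent arrays double-stranded by primer extension.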

Sequence | PBM E-score
ACGGTGTG | -0.104
ACATTTTG | 0.0673
TCCTCAGA | -0.159
CGCGCAAG | 0.0754
CAACAACC | 0.058
CTAAGTTA | 0.156
AAGATCAT | 0.0787
CCTCTGAC | 0.00321
CGAGCCAC | -0.267
AGCATAGG | -0.136
CGGATATC | -0.00169
ATAGTCGA | 0.168
ACACTAGA | -0.0654
CCCATGCA | -0.0177
TCTATAAA | 0.203
CATCTTAC | 0.173
ACAACTAT | 0.116
CGGCCCAA | -0.105
CGGAACCA | 0.0566
ATTGATGA | 0.296
GACTAGCC | -0.281
ACCGCGAG | -0.076
TTAGTAAA | 0.193
AGGGGATG | -0.161
AAGTAGGC | -0.032

Sequence | PBM E-score
AGATGCCG | 0.215
ACGATGGA | -0.0282
GATTTAAA | 0.036
CGTCTTGC | -0.0491
GCTTGTTA | -0.0328
GCCCTTTA | -0.207
AATAAGCT | 0.12
ACCACCAT | -0.072
GCTATAGC | -0.258
AAGCTAGG | -0.161
CCCCAGTC | -0.298
CAGCAATA | 0.166
AGGGCTTC | -0.0889
ATCAAGAT | 0.0189
GGCCGATA | -0.0736
ACCTATCG | -0.0706
TTCACGAA | -0.0452
ATGGCTTA | -0.0638
TACTTTAA | 0.155
ACAAGGGG | -0.253
CAGGCCCC | -0.316
CCAATATA | -0.0204
CATTCCGG | -0.137
GCCATTAC | 0.133
AGGGCAAA | -0.153

Sequence | PBM E-score
GCGCAAAC | -0.0537
GCTGCAAC | -0.167
ATGTGTTC | 0.0414
AGCGAGGA | -0.0398
CATGAAAG | 0.082
CATACGGA | 0.049
CCGGGCGC | -0.213
ATGCCCGC | -0.104
CACATGAG | -0.185
CAACTACC | -0.0515
CGAGCGCA | -0.0284
TAGACGCA | -0.042
ACTTAAAC | 0.0697
GCCAGCAC | -0.0819
TCCGGAAA | -0.135
CGCACCCG | -0.117
TCGACGAA | 0.0792
GTTAGGAA | 0.0338
ACTACAGC | -0.192
CTGTCCAC | -0.153
AAATATAA | 0.233
CCACGAGG | -0.141
ACAATTTG | 0.00944
GGTGGGGA | -0.0282
AAACTGTA | 0.111

Sequence | PBM E-score
AGTGTAAT | 0.0574
CACTAAAC | 0.136
AAACGGCG | 0.369
CCGGGCGA | -0.295
ATGACACG | 0.256
AAACCGAG | -0.0291
AGCGTCGC | -0.105
AGGACGGA | -0.231
GCATAATA | 0.227
AAGCAGGG | -0.262
CCGAAATC | 0.0746
CGTCTTAC | 0.0262
CCCTTACG | 0.0214
TGTGCAAA | -0.0128
CATATCTA | 0.122
AGCGGGTA | -0.00685
GGCTCAAC | -0.0841
TGTTGGAA | 0.0885
CATGCCCC | -0.109
AACACGCA | -0.0236
CGTCTCCC | -0.107
AGACTTGA | -0.0852
GCATGCGC | 0.139
AGTACAAT | 0.158
GAGCGTGC | -0.073

Sequence | PBM E-score
AGCAGATC | 0.0455
ATATTTGC | 0.249
ATCGCAGG | -0.199
CACTTTAG | -0.0355
ATTGAGAC | 0.127
GGATGTAA | 0.191
GGATTCTA | -0.132
CTCGTAGC | -0.154
ATCTGTTC | -0.0152
GCAGAGGC | -0.312
AAATAACG | 0.263
ATCGCCTG | -0.222
CGGGCGAG | -0.16
AGACGCAA | 0.0971
GGGCAGAA | 0.125
CGGATCAA | 0.175
CCGCCGCA | 0.0944
CTCTCATC | -0.0922
CCCGGATA | -0.319
CGTCCACA | -0.0335
ATGATTTA | 0.277
ACACCGAC | 0.0715
GGCAAATA | 0.259
CATCGGGA | 0.0725
CAGGAGGG | -0.256

Sequence | PBM E-score
GTCCCATA | -0.14
CGGACACC | -0.251
AGCGGAGC | -0.217
GTCCGACA | -0.00974
GGGCGTTA | 0.0804
TAGTCTGA | 0.0293
GACGGTGA | 0.0968
CGTAGAGC | 0.0266
CCATTCGA | 0.126
GCAACCAA | 0.0886
CTTCCCAC | 0.0313
GGAACACC | -0.343
AGAACTAA | 0.173
ATCGACGG | 0.0039
GACCCTCC | -0.246
TCAACGCA | 0.105
GGCTCTAC | -0.236
TAAGACAA | 0.186
CATAATTA | 0.304
CTCCGAGC | -0.0988
AAGATGTA | 0.169
ACGGGTTC | -0.13
ACCCTAAT | -0.116
GCGCAATA | -0.079
ATCAGGGG | -0.362

Sequence | PBM E-score
GGCACATA | 0.14
AGAAGGGC | -0.176
GTGTCCCA | -0.0405
GGAGGCAA | -0.3
CAGCGAAC | -0.0605
AGGTCGAG | -0.158
AGAGATAA | 0.119
CACACACG | 0.148
ATCGGCTG | -0.0495
CGTGGACC | -0.274
AGTTTTTC | 0.089
AACGCAGA | -0.143
CGTTGCCA | 0.0299
GGGCTGAA | -0.0485
ATCGATTC | -0.0173
CCATCAGG | -0.32
ATATAAGG | 0.228
TATCACGA | 0.153
GTAAGAAC | 0.211
CTCGTAAC | 0.159
AATTTCAA | 0.0956
ACAAACCT | -0.0217
GTATGCTA | 0.00634
CCGCTAGG | -0.117
CACCACAA | 0.061

Sequence | PBM E-score
CGGGCACG | -0.0814
AACCTTCT | -0.282
GTAATATA | 0.354
ACGTCGCA | 0.114
ACTGGGCA | -0.16
ATCGGGTC | -0.157
CAGCACTC | -0.0867
ATTCTTAA | 0.0832
CCGGGAAC | -0.0978
CCCTTGCC | -0.336
GATTTTGC | -0.0785
GCGACACC | -0.173
ACCCCTTC | -0.208
CATCGCCG | 0.124
CCACCGGC | -0.25
CGTCTTTA | 0.232
CCCTTTTA | -0.0939
GCCATACC | -0.243
CGGACTAG | -0.236
TCGTCAGA | 0.124
AGGATAGG | -0.178
GAGTTATA | 0.0673
GGCGAGGA | -0.225
GCTATCCA | -0.171
GCGGCAAC | 0.183

Sequence | PBM E-score
ACATGCGA | -0.00307
CGTTAGAG | -0.138
ATGTGGTA | 0.12
GCGAGAGA | -0.179
ACTGATCT | 0.139
GAGGACAC | -0.0612
ACCTCCAC | -0.114
ACAGCGCA | -0.186
ATCCGGCG | -0.0229
ATACGGAT | 0.248
AAATCCAT | 0.245
AGCTACAG | -0.294
ATGTGAAT | 0.0822
AGTTTACA | 0.106
AAAGAAGC | 0.0364
CCTCCTTC | -0.185
CCAAGCGC | -0.0706
CCGACTCC | -0.268
GGTAATCA | 0.114
TAAAAGGA | 0.0668
CTTGCGTC | 0.249
GACGTGGA | 0.197
AAGTAGCC | -0.261
AGAGAGAC | -0.136
GCGAATTA | 0.269

Sequence | PBM E-score
ACAATTGG | -0.0827
GAGCTTGC | -0.272
AACATTTC | 0.148
GGACTATA | -0.0671
CGAATTGC | -0.0408
AGGTACCG | 0.0389
TCGCGGAA | -0.193
GAATCTGC | -0.126
CTACCCCC | -0.411
GAGCCGCA | 0.28
CCGACCGA | -0.17
ATTAGCAC | 0.0142
GGACTGCC | -0.248
CCCACACG | -0.0649
AGGTTTTG | -0.144
CACCCCCG | -0.127
ACCGGTGA | 0.125
GCCCTCCA | -0.19
ATCTACCC | -0.0121
CCATTACG | 0.295
ACAACTCT | -0.104
ACAACTGA | 0.0407
ACTGTGCG | 0.0555
ATTGTGTG | 0.0682
ACCTCCGA | -0.321

Sequence | PBM E-score
AGAGTATC | 0.0606
GGCTTACA | 0.0454
TACGTATA | 0.328
AAGGGACA | -0.141
GGATGGCA | 0.157
GGGGCGAA | -0.0813
AAAGCAAT | 0.182
AACACAAC | 0.139
TGTCCTAA | -0.00039
AAATACCA | 0.0819
GAAGCTAC | -0.093
ACGAGGCC | -0.189
AACGGGGG | -0.128
ATGGTGTG | 0.0348
GCTTTCAC | -0.0161
ACTTCCAC | -0.072
AAGGGAAA | -0.0675
CCGAAGCG | -0.228
ATCCAACA | 0.084
CCTGTATC | 0.0274
GCCGAGTA | -0.233
ATGTTGCG | 0.203
CATACTAG | 0.0942
AGATCAAC | 0.11
AGGTACCA | -0.206

Sequence | PBM E-score
ATCTAAGC | -0.197
ACGTACGA | 0.0335
ATGGCGAG | -0.095
CAGCCGTA | 0.0842
AGTATGGA | -0.0592
CACGATGA | 0.158
AGCCCGTG | -0.277
AATCAGGC | -8e-05
GTTAAAGA | 0.103
ACCCTCCT | -0.25
GATTGAGC | 0.0772
CAGTAGCA | -0.0996
GGTGCAAA | -0.0791
ATACCAGA | -0.0118
ACCAGACG | 0.074
GGGCCGGA | -0.211
CCAAACAC | -0.0522
GCGTGGGA | -0.0642
AACCGCTG | -0.159
AATACCAG | 0.00119
GCATTCTA | 0.124
CGAAAGGA | -0.015
AAAGCACG | -0.0595
CACCCCCA | -0.242
AAGACCTG | -0.183

Sequence | PBM E-score
AAAGCGAG | -0.0116
CTAGCTGA | 0.00129
AGTTATCC | 0.00913
TGCGGGAA | 0.00486
GCTCAACC | -0.198
GAAATTGA | 0.153
AGTAAGAA | 0.225
AAGAGAAA | 0.0634
ACGTGTCC | -0.199
TATGCATA | 0.0156
CTCAGAGA | -0.0636
TGGTTAAA | 0.0964
ACTTTCCA | 0.134
CATTTAGA | 0.136
GGGATTAC | 0.114
GTCATCCA | 0.383
ATTCGGCC | -0.161
AATGGCCG | -0.144
ATATCGTG | 0.0561
AAGGAACA | 0.00613
GAAGTGCC | 0.0369
CGCACATC | 0.0231
CTCTCGTC | 0.0334
CTCACGGA | -0.0452
ATTGGGAC | 0.00586

Sequence | PBM E-score
ACACTGCC | 0.0738
ACAGAGGG | -0.272
ATTGTATC | 0.145
ATCAACCG | -0.093
CCCCAGGC | -0.362
ATAATTAT | 0.342
CCTCTACC | -0.229
ACCTTTCT | 0.0152
ATAAATGC | 0.161
CTTGTGCC | 0.0039
GTGAATAA | 0.293
ATGCTTTG | 0.0423
AGGACCCT | -0.321
CGTAAAAA | 0.228
AGACACAA | 0.149
AAGCAAAC | 0.0375
AGTTTTCA | 0.0851
AAGCTTCT | -0.0653
AGGATGGG | -0.303

Reference: the supplement of paper PMC3334620
